{"source": "PubChem BioAssay AID686970", "about": "(National Center for Advancing Translational Sciences (NCATS), 2013)", "note": "Out of some 360,000 compounds screened, about 6,000 (1.7%) were called active. Inconclusive means that the source gave no clear call. Such entries were picked first, then a sample of the others. Calls follow the shape of the dose curve; as a rule, active = well fitted cell-killing curve with a large enough effect; inconclusive = small, poorly fitted or top-dose-only effect, or effect the other way; inactive = flat fitted curve, though single readings scatter. No potency is given beside an inconclusive call; the fits are too rough. Potency is read from the fitted curve at half-maximal effect; tags tell the direction and shape of the fitted curve.", "data": [{"assay": "qHTS for induction of synthetic lethality in tumor cells producing 2HG: qHTS for the HT-1080-NT fibrosarcoma cell line;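 also: NT is the 2HG producing partner of a matched IDH1 knockdown line; nearly all actives have a fitted effect of over 55% in size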;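 as to activity, negative = less viability: 0% = DMSO-treated cells and -100% = media-only wells without cells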", "settings": "HT-1080-NT fibrosarcoma viability, CellTiter-Glo ATP luminescence, 48 h; activity, negative = less viability: at 46.1 µM (top of the series) unless noted", "in_short": "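Viability by CellTiter-Glo luminescence after 48 h compound exposure at 37C of HT-1080-NT cells (750/well, RPMI, 5% FBS). % activity scaled between DMSO wells and medium-only wells, then curve-fitted and categorized by curve class.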", "values": [{"smiles": "COc1ccccc1CNc1nc(=S)[nH]c2cc(OC)c(OC)cc12", "Potency": "inconclusive [cytotoxic, single point]"}, {"smiles": "O=C(O)c1ccccc1SCc1cn2cc(Br)ccc2n1", "activity, negative = less viability": "inconclusive: -7.46% [cytotoxic]"}, {"smiles": "Cc1ccc(-c2cc(C(=O)N3CCN(c4ccccc4O)CC3)c3ccccc3n2)o1", "Potency": "inconclusive [cytotoxic, partial curve]"}, {"smiles": "CCC(=O)Nc1nc2ccccc2n1Cc1ccc(C)cc1", "Potency": "inconclusive [cytotoxic, partial curve]"}, {"smiles": "COc1ccc2cc(CN(CC3CCCO3)S(=O)(=O)c3ccccc3)c(=O)[nH]c2c1", "note": "(stereo unspecified)", "activity, negative = less viability": "inactive: -6.84%"}, {"smiles": "COc1ccc(NC(=O)C2(C)Cc3c(-c4cccc(C(F)(F)F)c4)ccnc3O2)cc1OC", "note": "(stereo unspecified)", "Potency": "active: 20.6 µM"}, {"smiles": "Cc1cccc(N(C(=O)c2snc(C(N)=O)c2N)C(C(=O)NCC2CCCO2)c2ccc3ncccc3c2)c1", "note": "(stereo unspecified)", "activity, negative = less viability": "inactive: -12.9%"}, {"smiles": "CCOC(=O)Nc1ccc2c(COC(=O)CNS(=O)(=O)c3ccc(NC(C)=O)cc3)cc(=O)oc2c1", "Potency": "inconclusive [cytotoxic, single point]"}, {"smiles": "O=C(Nc1nnc(-c2ccccc2SCc2ccccc2)s1)Nc1ccccc1F", "Potency": "inconclusive [cytotoxic, partial curve]"}, {"smiles": "COc1ccc(-c2cnnc(N/N=C/c3ccc(O)cc3)n2)cc1", "activity, negative = less viability": "inactive: -14.8%"}, {"smiles": "CCOc1ccc(-c2nnc3n2N=C(c2ccc(OC)cc2)CS3)cc1", "activity, negative = less viability": "inactive: 5.41%"}, {"smiles": "Cc1ccc(-c2ccc3nnc(SCC(N)=O)n3n2)cc1", "activity, negative = less viability": "inconclusive: 35.7%"}, {"smiles": "Cc1ccc2nc(C(C)(C)C)c(Cc3cccc(F)c3)n2c1", "Potency": "active: 16.4 µM"}, {"smiles": "Cc1noc(-c2ccc(Cl)cc2)c1C(=O)O/N=C(\\N)c1ccc(C(C)(C)C)cc1", "Potency": "inconclusive [cytotoxic, single point]"}, {"smiles": "O=C(NCC1OCCc2ccccc21)c1ccc(NC(=O)c2ccc(Cl)cc2)cc1", "note": "(stereo unspecified)", "Potency": "active: 20.6 µM"}, {"smiles": "CCCCCCN1C=C/C(=C\\C=C(C#N)C#N)c2ccccc21", "activity, negative = less viability": "inactive: -3.38%"}, {"smiles": "O=C1c2ccccc2C(c2nnnn2Cc2ccccc2)N1CCc1c[nH]c2ccccc12", "note": "(stereo unspecified)", "Potency": "inconclusive [cytotoxic, single point]"}, {"smiles": "CCNC(=O)C1CCCN(Cc2ccc(OCc3ccccc3)cc2)CC1", "note": "(stereo unspecified)", "Potency": "inconclusive [cytotoxic, single point]"}, {"smiles": "CCc1ccc(NC(=O)[C@H](Cc2c[nH]c3ccccc23)NC(=O)[C@@H]2Cc3ccccc3CN2)cc1", "Potency": "inconclusive [cytotoxic, partial curve, poor fit]"}, {"smiles": "CCNC(=O)N1CCC(c2nc3ccccc3s2)CC1", "Potency": "inconclusive [cytotoxic, full curve]"}, {"smiles": "Cc1cc(C)c(S(=O)(=O)c2ccccc2)c(OC(=O)c2c(Cl)cc(Cl)cc2Cl)n1", "Potency": "inconclusive [cytotoxic, single point]"}, {"smiles": "Cc1cc(C(=O)c2ccc(C(C)(C)C)cc2)c(NC(=O)CCl)s1", "Potency": "inconclusive [cytotoxic, single point]"}, {"smiles": "O=C(O)CCNc1ccc(NCCC(=O)O)c2c1C(=O)c1ccccc1C2=O", "Potency": "inconclusive [cytotoxic, single point]"}, {"smiles": "Clc1cccc(Nc2ncnc3ccc(Br)cc23)c1", "Potency": "active: 7.94 µM"}, {"smiles": "Cn1cc(CN2CCCC(C(=O)c3cc(F)ccc3F)C2)c2ccccc21", "note": "(stereo unspecified)", "Potency": "inconclusive [cytotoxic, partial curve]"}, {"smiles": "COc1cccc(NC(=O)Nc2ccc(C(C)(C)C)cc2)c1", "Potency": "active: 16.4 µM"}, {"smiles": "Cn1c(CNC(=O)OC(C)(C)C)n[nH]c1=S", "activity, negative = less viability": "inactive: 3.76%"}, {"smiles": "Nc1ccc(N(c2ccccc2)c2ccc(N)cc2)cc1", "Potency": "active: 16.4 µM"}, {"smiles": "CCOC(=O)c1cnc2ccc(C)cc2c1NCCO", "activity, negative = less viability": "inactive: -1.44%"}, {"smiles": "CC1(Cc2ccccc2Cl)C(=O)Nc2ccc(OC(F)(F)F)cc21", "note": "(stereo unspecified)", "Potency": "inconclusive [cytotoxic, single point]"}, {"smiles": "O=C1C=CC(=O)N1CCCCCCN1C(=O)C=CC1=O", "Potency": "inconclusive [cytotoxic, single point]"}, {"smiles": "COc1ccccc1/C=C/C=C(\\C#N)C(=O)NC(C)c1ccccc1", "note": "(stereo unspecified)", "Potency": "inconclusive [cytotoxic, single point]"}, {"smiles": "COC(=O)[C@]1(Cc2ccccc2)N[C@H](CN(C)C(=O)c2ccc(C(C)(C)C)cc2)[C@@H]2C(=O)N(Cc3ccccc3)C(=O)[C@@H]21", "activity, negative = less viability": "inactive: 8.15%"}, {"smiles": "CC1(C(=O)Nc2ccc3[nH]ncc3c2)CCN1C(=O)CC(c1ccccc1)c1ccccc1", "note": "(stereo unspecified)", "activity, negative = less viability": "inactive: -0.782%"}, {"smiles": "Cc1c(C(=O)c2no[n+]([O-])c2C(=O)c2cnn(C)c2C)cnn1C", "Potency": "inconclusive [cytotoxic, single point]"}, {"smiles": "CCn1nc([N+](=O)[O-])c(C(C#N)c2nc3cc(C(F)(F)F)ccc3s2)c(Cl)c1=O", "note": "(stereo unspecified)", "Potency": "active: 0.631 µM"}, {"smiles": "Cc1cc(C(=O)COC(=O)c2ccc(O)cc2)c(C)n1-c1ccccc1F", "activity, negative = less viability": "inconclusive: -29.4% [cytotoxic]"}, {"smiles": "COc1ccc(OC)c2[nH]c(C(=O)N/N=C/c3ccccc3O)cc12", "Potency": "inconclusive [cytotoxic, full curve, poor fit]"}, {"smiles": "N#C/C(=C(/O)c1ccc(Br)s1)c1nc2ccccc2[nH]1", "Potency": "inconclusive [cytotoxic, single point]"}, {"smiles": "CCN=c1sc(C(=O)Nc2ccccc2)c(C)n1CC", "activity, negative = less viability": "inconclusive: 33.5%"}, {"smiles": "NC(=O)C1CCN(CC(=O)NC2CCCc3ccccc32)CC1", "note": "(stereo unspecified)", "activity, negative = less viability": "inactive: 16%"}, {"smiles": "Cc1ccc(-n2sc3cc(F)ccc3c2=O)c(C)c1", "Potency": "inconclusive [cytotoxic, single point]"}, {"smiles": "CC(C)c1ccc2[nH]c3c(c2c1)CCC/C3=N\\NC(=O)c1ccncc1", "Potency": "inconclusive [cytotoxic, single point]"}, {"smiles": "CC(=O)Nc1ccc(CNc2nc(NC(C)C)nc3cc(-c4ccccc4)sc23)cc1", "Potency": "inconclusive [cytotoxic, single point]"}, {"smiles": "O=C(NCCc1ccccc1)C1CCCN(c2cnccn2)C1", "note": "(stereo unspecified)", "activity, negative = less viability": "inactive: -0.381%"}, {"smiles": "CCCCn1c(=O)[nH]c(=O)c2c1nc(Cn1ncc(Cl)c(Cl)c1=O)n2CCC", "Potency": "active: 8.2 µM"}]}]}
